Results reported in the supplement of paper PMC3334620.
The full ranking holds about 33,000 sequences; the median of “E-score (-0.5 to 0.5)” is about -0.021, and the highest 2% start at about 0.32. The list shows a part of the results.

Target: T1, Zap1 (UniProt P47043)
T1 sequence: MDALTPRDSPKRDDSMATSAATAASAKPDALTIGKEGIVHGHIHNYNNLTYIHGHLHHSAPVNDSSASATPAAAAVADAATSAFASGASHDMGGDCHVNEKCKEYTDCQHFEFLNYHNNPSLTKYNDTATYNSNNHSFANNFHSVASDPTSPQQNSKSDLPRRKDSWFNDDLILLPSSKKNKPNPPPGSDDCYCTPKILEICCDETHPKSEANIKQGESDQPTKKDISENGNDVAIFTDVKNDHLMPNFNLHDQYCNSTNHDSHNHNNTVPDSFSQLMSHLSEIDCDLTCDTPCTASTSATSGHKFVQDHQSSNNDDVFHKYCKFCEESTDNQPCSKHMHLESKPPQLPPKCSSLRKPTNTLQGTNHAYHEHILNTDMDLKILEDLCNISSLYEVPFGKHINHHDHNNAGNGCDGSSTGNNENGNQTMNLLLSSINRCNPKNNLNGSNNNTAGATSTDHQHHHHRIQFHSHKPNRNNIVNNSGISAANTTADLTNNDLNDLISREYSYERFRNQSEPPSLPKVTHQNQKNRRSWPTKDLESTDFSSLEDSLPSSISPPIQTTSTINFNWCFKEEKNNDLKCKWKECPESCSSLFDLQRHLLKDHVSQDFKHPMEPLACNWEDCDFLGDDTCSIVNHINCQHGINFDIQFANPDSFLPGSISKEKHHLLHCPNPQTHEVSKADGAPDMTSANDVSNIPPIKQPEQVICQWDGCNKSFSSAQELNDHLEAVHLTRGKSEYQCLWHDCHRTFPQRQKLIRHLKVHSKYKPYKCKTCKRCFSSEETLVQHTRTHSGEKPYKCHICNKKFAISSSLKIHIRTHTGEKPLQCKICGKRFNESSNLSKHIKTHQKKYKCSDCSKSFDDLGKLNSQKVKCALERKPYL
Assay: PBM E-score (8-mer binding enrichment) (E-score (-0.5 to 0.5)); higher = stronger / more preferred TF binding; most listed sequences are background and not binding sites
Details: protein concentration: 200 nM; construct: GST-full length
Summary of the method: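 Each ungapped eight-base word and its reverse complement, pooled, received an E-score from the Universal PBM Analysis Suite. Underlying scans, normalised with masliner, recorded fluorescent anti-GST bound to GST-tagged yeast transcription factors. These were applied at about 100-200 nM to universal all-10-mer Agilent arrays double-stranded by primer extension.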

Sequence | PBM E-score
GGAGCTAA | -0.165
CGCGTGAA | 0.0743
GAACTGGA | 0.0668
TATGAAAA | 0.21
ATGGTCAG | 0.216
AGGATTAA | -0.0423
ATGATTTC | 0.0431
ATCCTGGA | 0.00083
GGTCCATA | 0.0734
GTGAAACA | 0.097
CCCCCAGG | -0.027
CGACATTA | -0.0353
GTAGCCTA | -0.0051
CGTAAAAC | 0.158
GTAGCGAC | -0.13
GCATTGAA | -0.0007
AGCCAGAC | -0.0808
AGGTAGTC | 0.147
GGCCTAGA | -0.18
ACTCTGAC | 0.00453
ACTCATCG | -0.17
GACAGGAC | -0.0567
CGTGTCCC | -0.0698
GGCCAGGA | -0.161
ACACCCAT | 0.11

Sequence | PBM E-score
CATCTTTC | -0.0278
AACTTACA | 0.0201
CATAAATG | -0.0543
GCTAACGA | -0.0629
AAATGTCC | -0.188
AAATTCCC | -0.229
AATGGCGT | -0.0145
GCGCTACA | -0.113
GGGGGATA | -0.177
AAGTAAGA | 0.0484
AAGGCACG | -0.121
ATATAGAT | 0.131
GTCGTGTA | 0.0536
AACCCACG | 0.156
AGGTTGGG | 0.232
CCGTCAAC | -0.157
AATCCACA | 0.0186
CACCCCAG | 0.118
AATATCCA | 0.124
AGTATGAC | 0.0472
TCACCCCA | 0.249
AAAATGTG | -0.0329
CCGTGATA | 0.0343
GCGATGAC | 0.0689
GAGTGGAC | -0.0822

Sequence | PBM E-score
GATTTCCA | 0.012
ATAGCTGA | -0.0341
AAACCAGG | 0.162
ACCCTCAC | 0.251
GGAAGATA | 0.0199
CGCACCTC | -0.145
AAGCTAGA | -0.137
CAGTTGCA | -0.107
GTAGCAAA | -0.0914
CATGTTAC | -0.019
TAGCGTCA | -0.097
CCGGCCGA | 0.0494
CCATAGCC | -0.159
CAGCCCCG | -0.0674
CACTCTTC | -0.159
ATCGGCAT | 0.0012
GTTAATGA | 0.135
CGACAGCC | -0.215
AAGACATC | -0.199
CACGCAGG | 0.0824
CAACCCGG | 0.213
ATAGTAAA | 0.105
TGATCAAA | 0.0723
GAAATAGC | 0.103
AACCGCCA | 0.148

Sequence | PBM E-score
CGTTACCC | 0.258
CTGCGGCA | -0.251
CCAGTCAC | -0.194
GTTTCAGA | -0.104
GACGTACA | 0.00824
ACCCAAGA | 0.152
AGAGAGTC | -0.0905
AGCGAGCC | -0.0795
CCGTCGGC | -0.154
AAAATTGC | 0.0619
CATCGAGA | -0.112
CGACCGAG | -0.21
GTGGGAGA | -0.362
CAACTTGC | -0.24
CAATGGTG | -0.183
ATGGTTCC | 0.21
CGCGCACA | -0.098
AAAATGTC | 0.0833
AGCTCTGG | -0.154
ACTCCGAC | -0.0586
ATGCTAAC | 0.0482
CCACCTAA | -0.00966
AGACCGCT | -0.00371
ACGGGTGG | 0.198
CATAACAA | 0.179

Sequence | PBM E-score
CTCAGAAG | 0.0412
GTGGGCAA | -0.0918
AAGTCGCC | -0.16
CAGGCAAA | -0.062
GCGCTAAC | 0.0801
ATCGGAAC | 0.0373
ACCCCACG | 0.216
CCTGGACC | 0.0191
ACGTCTAC | -0.0979
CCAGAGCG | -0.297
AAATCCCC | -0.0456
CTAACTAA | 0.0584
ATGCTCGC | -0.245
AGCCTGAA | -0.117
AACTTGGC | -0.0515
ACTGACGG | -0.0593
ACTCCCTC | -0.107
ACCATTGG | 0.176
GACGCATA | -0.126
AACGCCTA | -0.0435
ACACACTC | -0.0362
CATGAATA | 0.0386
CATCGACA | -0.0208
ATCACACA | 0.164
AAGTGTGG | 0.0823

Sequence | PBM E-score
GGAGCGGA | -0.221
AGGCCTGC | -0.253
AGTCCTCG | -0.272
CGGGAACG | -0.266
ACCCCGAG | 0.137
AGCAGCGC | -0.225
GGTGAGTA | -0.0185
AGTAGCAA | -0.124
CAAAACCC | 0.349
AGACCCAA | 0.219
CGCGCCAC | -0.047
CACTCATC | -0.0653
CCAGCGTC | -0.259
GTGCGAAA | 0.0725
GTGGAAAA | 0.0185
AGACCACG | -0.0124
AAACAAGA | 0.146
AGGACTTC | -0.167
CATCTTCG | -0.0684
GTCACTGA | 0.0804
ATTTCACA | 0.0724
ATTCTGAG | 0.0121
TATTGTCA | 0.125
ACATGCCT | -0.137
ACCGCCGA | 0.0525

Sequence | PBM E-score
CTTACAAA | 0.0824
GAGATCCA | -0.0613
GACAATGC | -0.0612
CGCGATCC | -0.0353
ACGGTGCG | -0.0395
GTCAATTA | -0.00385
ACACGAAA | 0.1
TAGTTATA | 0.22
GGCAACAA | 0.0441
AGAGATTC | -0.107
AATTCCGA | 0.0544
AGATCTGG | -0.152
AACGGAGC | -0.327
GGCTGCCA | -0.00635
CCCCGTAC | -0.133
AAGTCACT | -0.203
CACACGTC | -0.206
ACTCCCGG | -0.0926
CAGATGTC | -0.0749
GATGGAGA | -0.0408
CTCAGCTC | -0.128
CCTCCCTA | -0.0703
